# Measurements reported in PubChem BioAssay AID434955 (Southern Research Specialized Biocontainment Screening …, 2010).
# The list shows a part of the results. Shown are side measurements of this screen, not its main read-out; they come without a call. Compounds called inactive in the main read-out are mostly missing here.
# Assay: beta-lactam sensitization of Mtb H37Rv, H37Rv (AID 434955);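 further: growth measured after seven days incubation then overnight dye step; 0% = bacteria only wells and 100% = bacteria with antibiotic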
# Details: M. tuberculosis H37Rv growth with meropenem, percent inhibition; measured here: primary screen without meropenem; at 25 µM
row,Compound,inhibition [%]
1,CN(CCC1CCCCO1)C(=O)c1cc(COc2ccc(F)cc2F)on1 (centres undefined),2.89
2,Clc1ccc(-c2csc3ncnc(N4CCc5ccccc5C4)c23)cc1,3.07
3,Cc1ccccc1N1C(=O)/C(=C/c2ccco2)C(=O)NC1=S,9.38
4,CCOC(=O)c1c(/N=C/c2cc([N+](=O)[O-])ccc2O)sc(C)c1C,2.42
5,CCN(CC)C(=O)C1CCCN(C(=O)CCn2nnnc2CN2CCOCC2)C1 (centres undefined),0.01
6,Cc1ccc(OCc2cc(C(=O)NCC(C)c3ccccc3)no2)cc1C (centres undefined),11.3
7,O=C(COc1ccccc1Cl)Nc1ccc(N2CCCC2)cc1,95.8
8,CCN(Cc1ccccc1)S(=O)(=O)c1cc(C(=O)OC)n(C)c1,-8.13
9,COc1ccc(OC)c(NC(=O)CSc2nnc(-c3ccco3)o2)c1,-0.57
10,O=C(CCNC(=O)c1ccc(Br)cc1)NCC1COc2ccccc2O1 (centres undefined),-3.43
11,CC1CCN(CCOc2ccc(OCc3ccccc3)cc2)CC1,-10.4
12,Cn1cc(CN2CCCC(C(=O)Nc3cccc(-c4cc5ccccc5[nH]4)c3)C2)cn1 (centres undefined),12.1
13,CCOC(=O)N1CCN(Cc2nc3c(c(=O)[nH]c(=O)n3C)n2Cc2cc(C)ccc2C)CC1,-5.27
14,Cn1cccc1/C=N\NC(=O)C1COc2ccc(C(C)(C)C)cc2O1 (centres undefined),2.09
15,N#Cc1sc2nc(-c3cccs3)cc(-c3ccc(Cl)cc3)c2c1N,-2.75
16,COc1ccc(-n2nc3c(c2NC(=O)CBr)CSC3)cc1,-0.15
17,CSc1ccccc1OCc1cc(C(=O)N2CCN(c3ccccc3)CC2C)no1 (centres undefined),19.9
18,COc1ccc(OC)c(C(=O)c2ccc(C(=O)O)cc2)c1,3.69
19,CCC1CCCCN1C(=O)CSc1nnc(-c2ccc(OC)cc2)o1 (centres undefined),-10.4
20,COc1ccc(NC(=O)CSc2ccc3nnc(-c4cccnc4)n3n2)cc1OC,-2.1
21,CN(Cc1c(O)ccc2c1oc(=O)c1ccccc12)C1CCCCC1,-4.31
22,Cc1ccc(NC(=O)CN(C)C(=O)COC(=O)CCS(=O)(=O)c2ccc(C)cc2)cc1,10.4
23,CCC1(CC)Cc2ccccc2C(N)=C1C#N,23.4
24,CC(C)/C=C/CN1CCC(Oc2ccc(C(=O)N3CCCC3)cc2)CC1,2.41

row,Compound,inhibition [%]
1,Cc1ccccc1CSc1nnc(C)c(=O)n1N,0.74
2,Cc1nn(C)c(Cl)c1CN1CCCC(C(=O)Nc2ccc(-c3cscn3)cc2)C1 (centres undefined),6.67
3,CCOc1ccc(NC(=O)CN(C)C(=O)c2cccnc2Sc2ccc(C)c(C)c2)cc1OCC,-0.64
4,Cc1cccc(N(C)S(=O)(=O)c2cc3c(cc2C)n(C)c(=O)c(=O)n3C)c1,-11.2
5,CCc1cc2c(=O)nc3n(c2s1)Cc1ccccc1/C3=C(/O)c1ccc(F)cc1,33.5
6,COc1ccc(CCN=C(N)NS(=O)(=O)c2ccc(F)cc2)cc1OC,-2.35
7,Cn1c(Cl)nc2c1c(=O)n(Cc1cccc(Br)c1)c(=O)n2C,3.13
8,CCCc1nc2sc3c(c2c(=O)n1NC(=O)CCC(=O)O)CCCC3,-0.6
9,COc1cccc(-c2cc(C(=O)NCc3ccc(Cl)cc3)no2)c1,9.59
10,CC(C)(C)c1ccc(-n2ncc3c2CCCC3NC(=O)C2=NNC(=O)CC2)cc1 (centres undefined),8.03
11,CCn1c(SCC(=O)Nc2cc(C)on2)nc2c1c(=O)n(C)c(=O)n2C,-3.82
12,Cc1cccc(C)c1OCc1cc(C(=O)N2CCN(C3CCCC3)CC2)no1,7.8
13,COc1cccc(C2N(c3ccc(Cl)cc3)C(=O)C3CCCN32)c1 (centres undefined),-11.3
14,CCCCOc1ccc(C(=O)Nc2ccc(OCC(=O)N3CCOCC3)cc2)cc1,1.19
15,O=[N+]([O-])c1nn(-c2ccc3c(c2)OCCO3)n(O)c1=NCc1ccc(F)cc1,65.3
16,COc1c(Cl)ccc(Cl)c1C(=O)NC(=O)N1CCOCC1,-6.73
17,Cc1cc(NC(=O)c2cccc(S(=O)(=O)Nc3cccc(C(=O)O)c3)c2)no1,-2.76
18,COc1ccc(CCN2CC(C(=O)N3CCC(O)(c4ccccc4)CC3)CCC2=O)cc1 (centres undefined),-3.11
19,CC1CC(C)CN(CCCNC(=O)CN2C(=O)c3cccnc3Oc3ccccc32)C1 (centres undefined),5.47
20,O=C(c1cnn2c(C(F)F)cc(-c3ccccc3)nc12)N1CCOCC1,-4.89
21,O=C(c1cccc(C(=O)N2CCN(c3ccc(F)cc3)CC2)c1)N1CCN(c2ccc(F)cc2)CC1,19.3
22,O=C(CSC1=NCCS1)Nc1nc2c(s1)CCCC2,-8.84
23,O=C(Nc1cccc(Cl)c1)c1nc[nH]c1C(=O)NCc1ccccc1,67.7
24,CN(C)S(=O)(=O)c1cccc(NC(=O)c2ccncc2)c1,-5.37

row,Compound,inhibition [%]
1,CCN1C[C@]2(CO)CC[C@H](OC)[C@@]34C2[C@H](OC)[C@@](O)(C13)[C@@]1(O)C[C@H](OC)[C@H]2C[C@@H]4[C@@H]1[C@H]2OC,4.39
2,Cc1ccccc1C(=O)Nc1ccccc1N1CCN(C(=O)c2ccccc2)CC1,4.68
3,O=C1c2ccccc2C(Nc2ccc3c(c2)OCCO3)N1c1ccccn1 (centres undefined),-4.15
4,CC(=O)Nc1ccc(C(=O)OCCCOC(=O)c2ccc(NC(C)=O)cc2)cc1,3.48
5,CCCCOC(=O)COc1cc(C)cc2oc(=O)c3c(c12)CCC3,0.54
6,CCC(=O)N1CC2(C)CN(C(=O)CC)CC(C)(C1)C2,-2.78
7,O=C1CC(c2ccc(Cl)cc2)CC(O)=C1C=NCc1ccc(Cl)c(Cl)c1 (centres undefined),4.95
8,COc1ccc(N2C(=O)NC(=O)/C(=C\c3ccc([N+](=O)[O-])s3)C2=O)cc1,-7.84
9,O=S1(=O)CCO[C@H]2Cc3ccccc3[C@H]2N1Cc1ccccc1,14.2
10,Cc1ccc(CSC2=NCCN2S(=O)(=O)c2ccc(F)cc2)cc1,8.02
11,CCCC(=O)Nc1nc(-c2ccccc2)ns1,3.2
12,COc1ccc(C(=O)N2CCCCCC2)cc1OC1CCN(C(C)=O)CC1,6.24
13,Cn1c(C=O)c(-c2ccc3cc[nH]c3c2)c2ccccc21,74.6
14,CCCCN(CC)CCNS(=O)(=O)c1ccc2c(c1)oc(=O)n2C,-0.75
15,COc1cc2[nH]c(=O)n(CCCC(=O)N3CC=C(c4ccccc4)CC3)c(=O)c2cc1OC,-2.75
16,Cc1ccc(-c2[nH]ncc2CN2CCN(C(=O)c3cccs3)CC2)cc1C,6.73
17,CN(CCCN1CCCCC1)C(=O)c1cc(COc2ccc(F)cc2F)on1,0.64
18,Cc1ccc(C)c(-c2nnc(NC(=O)Cc3ccc(F)cc3)o2)c1,69.8
19,CCCNc1c(NS(=O)(=O)c2ccc(Br)cc2)c(=O)oc2ccccc12,12.7
20,COc1ccc(C2CC(c3ccc(Cl)cc3Cl)Nc3nc(N)nn32)cc1 (centres undefined),-0.54
21,CCCCn1nc(NS(=O)(=O)c2cccc3nonc23)c2cc3cccc(C)c3nc21,2.89
22,CC(=O)N1c2ccc(S(=O)(=O)N3CCCC3C(=O)NCc3ccc(Cl)cc3)cc2CC1C (centres undefined),2.84
23,O=C(COC(=O)C1CC1)c1c[nH]c2ccccc12,38.7
24,COc1ccc(-c2nc(CSCC(=O)N3CCC4(CC3)OCCO4)c(C)o2)cc1OC,2.14

row,Compound,inhibition [%]
1,Cc1nc2ccccn2c1C(=O)NNC(=O)Nc1ccccc1,-2.53
2,O=C(Nc1cc([N+](=O)[O-])ccc1C(=O)NCCN1CCOCC1)c1ccccc1,5.18
3,O=C(NCc1nc2ncc(Br)cc2[nH]1)c1ccccc1,35.2
4,C=CCc1cc(Cl)ccc1OCCOCCNCCOC,-11.6
5,NC(=O)C1CCN(C(=O)CCNS(=O)(=O)c2cc(Br)cnc2N)CC1,-3.44
6,COc1ccccc1N1CCN(c2cc(C)nc3nc(C)nn23)CC1,4.33
7,CN(C)C(=O)CSc1nnc(C23CC4CC(CC(C4)C2)C3)o1,22.9
8,Cc1c(C(=O)c2ccccc2)oc2ccc3ccccc3c12,17.1
9,O=C(OCC1CC(c2ccccc2Cl)=NO1)c1ccc(Br)cc1 (centres undefined),18
10,Cn1nnnc1Sc1ncnc2scc(-c3ccc(C(F)(F)F)cc3)c12,63.6
11,CCC(C)NC(=O)/C=C/c1cccs1 (centres undefined),2.22
12,O=C(ONc1ccc(N=NC(=O)c2ccccc2O)cc1)c1ccccc1,-1.07
13,COc1c(F)c(F)c(C(=O)O)c(Nc2ccc(C)cc2)c1F,-11.6
14,COc1ccccc1C(=O)Nc1ccc2c3c(cccc13)CC2,42.2
15,CCOC(=O)N1CCN(C2CCCN(C(=O)c3ccccc3N(C)C)C2)CC1 (centres undefined),1.52
16,CCOC(=O)c1sc2ncnc(NCC(c3cccs3)N(C)C)c2c1C (centres undefined),97.1
17,CC(C)(C)c1ccc(-n2ncc3c2CCCC3NC(=O)CN2CCCC2=O)cc1 (centres undefined),-2.44
18,Cc1c(CC(=O)NCCCC(=O)O)c(=O)oc2cc3oc4c(c3cc12)CCCC4,-3.62
19,N=c1c(S(=O)(=O)c2ccc(Cl)cc2)cc2c(=O)n3ccccc3nc2n1Cc1cccnc1,-2.06
20,CCC(C)N1CC(=O)N2C(c3ccc(OC)cc3OC)c3[nH]c4ccccc4c3C[C@H]2C1=O (some centres undefined),6.67
21,O=C(NCCc1ccccc1)c1ccc(-n2cnnn2)cc1,-11.9
22,Cn1c(=O)c2c(nc(NCCCN3CCOCC3)n2Cc2ccc(Cl)cc2)n(C)c1=O,-2.92
23,Cc1ncc([N+](=O)[O-])n1CC(=O)NCc1ccccc1,0.39
24,CCCCCC(=O)Nc1cccc(C2=NOC3(C2)C[C@@H](C(N)=O)N(C(=O)CC(c2ccccc2)c2ccccc2)C3)c1 (some centres undefined),47.9

row,Compound,inhibition [%]
1,CC1CCCN(C(=O)CSc2nnc3n(C4CCCC4)c(=O)c4ccccc4n23)C1 (centres undefined),6.34
2,CCCCn1c(=N)n(CC(O)COc2cccc(C)c2)c2ccccc21 (centres undefined),94.5
3,COc1ccc(-c2cc3ccc(O)cc3oc2=O)cc1,1
4,CC(=O)c1ccc(NS(=O)(=O)c2ccc3c(c2)N(C)CCO3)cc1,0.95
5,O=C(c1ccccc1)N1CCN(C(=O)c2ccccc2Br)CC1,-6.74
6,CCN(CC)CCNC(=O)C1c2ccccc2C(=O)N(CCOC)C1c1ccc(F)cc1 (centres undefined),8.81
7,Cc1ccc(C)c(C(=O)CCC(=O)N2CCN(c3ncccn3)CC2)c1,7.36
8,O/N=C\c1ccc(-c2ccccc2)o1,70.7
9,O=[N+]([O-])c1ccc(/C=C2\CCC(C3=CCCC3)=C2N2CCOCC2)cc1,0.75
10,COc1ccccc1Nc1nc(=O)[nH]nc1C,-3.57
11,Cc1c(C(=O)N2CCN(CCc3ccccn3)CC2)oc2ccc(F)cc12,0.34
12,CCN(CC)c1ccc(N2C(=O)/C(=C/c3cccnc3)SC2=S)cc1,1.41
13,N#C/C(=N/O)c1nc(-c2ccc(F)cc2)cs1,71.7
14,Cc1cc(C(=O)NCc2ccccc2)no1,-3.28
15,COc1ccc(C2c3[nH]c4ccccc4c3C[C@H]3C(=O)N(CCCO)CC(=O)N23)c(OC)c1 (some centres undefined),-0.79
16,CCN1CCN(C(=O)C2CC(c3ccc(F)cc3)=NO2)CC1 (centres undefined),0.03
17,COCCNC(=O)c1ccc2c(=O)n(CCOC)c(=O)[nH]c2c1,0.12
18,O=C(NCCCc1ccncc1)C1CCC(=O)N(Cc2ccc(Cl)cc2)C1 (centres undefined),0.08
19,Brc1ccc(-c2ccc(C3Nc4cccc5cccc(c45)N3)o2)cc1,90.2
20,OCCN(Cc1ccccc1)Cc1cccc(C(F)(F)F)c1,20.1
21,CCCC(C)c1nc(C(N)=O)c2[nH]c(=O)n(-c3ccc(OC)c(OC)c3)c2n1 (centres undefined),2.8
22,O=C(NC1CCCN(c2ccc(C(F)(F)F)cn2)C1)c1ccnc(Cl)c1 (centres undefined),14.9
23,COCCCNC(=O)c1ccc(Cn2c(=O)c3ccccc3n(Cc3ccccc3C)c2=O)cc1,18.4
